# Measurements published in the supplement of paper PMC8728848.
# This is one part of the list.
# B1: Epa6 (Candida glabrata), Q6DTM7_CANGB (protein)
# chain: MGSSHHHHHHSSGLVPRGSHMKDDYSSSLSNNNLGWTDPTEFPLGCSPNVTTPKNGLSMELYSYDYLKSGSNPCWDAAYLDPNYPRTGYKSHRLLAKVENVAGNINFYYHAPMGCTSLFDTLPQAYNYRTPLTMTNFTMLLYGYFKPKVTGYHTFTISADDLLFVNFGAGNAFDCCKRESSADDFGNYQAYAVWGSQTAKDDLTVHLDAGLYYPIRIFFNNRDNDGALSLTLKTESDPNPVIDFSDYFYSFDDTKDGCPGLVSYDTS
# Experiments:
# Assay in all cases: glycan array binding signal (z-score within array); higher = stronger binding
# Details in all cases: glycan notation: IUPAC condensed, linker removed
# [1] = molecular target: Fuc(a1-2)[GalNAc(b1-3)]Gal
# Method in brief: (§1)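 Glycan array data came from 3228 arrays in the Consortium for Functional Glycomics database, and only arrays with an available protein sequence were kept. Glycan names were put into IUPAC-condensed notation, and columns mapping to the same glycan were averaged. The binding signal is a within-array Z-score, averaged across arrays of one protein sequence run at different concentrations or buffers and across linkers. A negative Z-score can be read as non-binding.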
# Fuc(a1-3)GlcNAc = molecular target: Fuc(a1-3)GlcNAc
# Method in brief: as §1
# [2] = molecular target: Fuc(a1-3)[Gal(b1-4)]Glc6S
# Method in brief: as §1
# [3] = molecular target: Fuc(a1-3)[Gal(b1-4)]GlcNAc
# Method in brief: as §1
# [4] = molecular target: Fuc(a1-3)[Gal(b1-4)]GlcNAc(b1-2)Man
# Method in brief: as §1
# [5] = molecular target: Fuc(a1-3)[Gal(b1-4)]GlcNAc(b1-2)Man(a1-3)[Fuc(a1-3)[Gal(b1-4)]GlcNAc(b1-2)Man(a1-6)]Man(b1-4)GlcNAc(b1-4)GlcNAc
# Method in brief: as §1
# [6] = molecular target: Fuc(a1-3)[Gal(b1-4)]GlcNAc(b1-2)Man(a1-3)[Fuc(a1-3)[Gal(b1-4)]GlcNAc(b1-2)Man(a1-6)]Man(b1-4)GlcNAc(b1-4)[Fuc(a1-6)]GlcNAc
# Method in brief: as §1
# [7] = molecular target: Fuc(a1-3)[Gal(b1-4)]GlcNAc(b1-3)Gal(b1-3)[Fuc(a1-4)]GlcNAc
# Method in brief: as §1
# [8] = molecular target: Fuc(a1-3)[Gal(b1-4)]GlcNAc(b1-3)Gal(b1-4)[Fuc(a1-3)]GlcNAc
# Method in brief: as §1
# [9] = molecular target: Fuc(a1-3)[Gal(b1-4)]GlcNAc(b1-3)Gal(b1-4)[Fuc(a1-3)]GlcNAc(b1-3)Gal(b1-4)[Fuc(a1-3)]GlcNAc
# Method in brief: as §1
# [10] = molecular target: Fuc(a1-3)[Gal(b1-4)]GlcNAc(b1-3)GalNAc
# Method in brief: as §1
# [11] = molecular target: Fuc(a1-3)[Gal(b1-4)]GlcNAc(b1-6)GalNAc
# Method in brief: as §1
# [12] = molecular target: Fuc(a1-3)[Gal(b1-4)]GlcNAc(b1-6)[Gal(b1-3)GlcNAc(b1-3)]Gal(b1-4)Glc
# Method in brief: as §1
# [13] = molecular target: Fuc(a1-3)[Gal(b1-4)]GlcNAc6S
# Method in brief: as §1
# [14] = molecular target: Fuc(a1-3)[Gal3S(b1-4)]Glc
# Method in brief: as §1
# [15] = molecular target: Fuc(a1-3)[Gal3S(b1-4)]GlcNAc
# Method in brief: as §1
# [16] = molecular target: Fuc(a1-3)[Gal3S(b1-4)]GlcNAc6S
# Method in brief: as §1
# [17] = molecular target: Fuc(a1-3)[GalNAc(b1-4)]GlcNAc
# Method in brief: as §1
# [18] = molecular target: Fuc(a1-3)[GalNAc(b1-4)]GlcNAc6S
# Method in brief: as §1
# Fuc(a1-4)GlcNAc = molecular target: Fuc(a1-4)GlcNAc
# Method in brief: as §1
# Fuc(b1-3)GlcNAc = molecular target: Fuc(b1-3)GlcNAc
# Method in brief: as §1
# Gal(a1-2)Gal = molecular target: Gal(a1-2)Gal
# Method in brief: as §1
# Gal(a1-3)Gal = molecular target: Gal(a1-3)Gal
# Method in brief: as §1
# Gal(a1-3)Gal(b1-3)GlcNAc = molecular target: Gal(a1-3)Gal(b1-3)GlcNAc
# Method in brief: as §1
# [19] = molecular target: Gal(a1-3)Gal(b1-3)GlcNAc(b1-2)Man
# Method in brief: as §1
# [20] = molecular target: Gal(a1-3)Gal(b1-3)GlcNAc(b1-2)Man(a1-3)[Gal(a1-3)Gal(b1-3)GlcNAc(b1-2)Man(a1-6)]Man(b1-4)GlcNAc(b1-4)GlcNAc
# Method in brief: as §1
# [21] = molecular target: Gal(a1-3)Gal(b1-3)GlcNAc(b1-3)GalNAc
# Method in brief: as §1
# [22] = molecular target: Gal(a1-3)Gal(b1-3)GlcNAc(b1-6)GalNAc
# Method in brief: as §1
# [23] = molecular target: Gal(a1-3)Gal(b1-3)[Fuc(a1-4)]GlcNAc(b1-2)Man(a1-3)[Gal(a1-3)Gal(b1-3)[Fuc(a1-4)]GlcNAc(b1-2)Man(a1-6)]Man(b1-4)GlcNAc(b1-4)GlcNAc
# Method in brief: as §1
# Gal(a1-3)Gal(b1-4)Glc = molecular target: Gal(a1-3)Gal(b1-4)Glc
# Method in brief: as §1
# Gal(a1-3)Gal(b1-4)GlcNAc = molecular target: Gal(a1-3)Gal(b1-4)GlcNAc
# Method in brief: as §1
# [24] = molecular target: Gal(a1-3)Gal(b1-4)GlcNAc(b1-2)Man
# Method in brief: as §1
# [25] = molecular target: Gal(a1-3)Gal(b1-4)GlcNAc(b1-2)Man(a1-3)[Gal(a1-3)Gal(b1-4)GlcNAc(b1-2)Man(a1-6)]Man(b1-4)GlcNAc(b1-4)GlcNAc
# Method in brief: as §1
# [26] = molecular target: Gal(a1-3)Gal(b1-4)GlcNAc(b1-3)GalNAc
# Method in brief: as §1
# [27] = molecular target: Gal(a1-3)Gal(b1-4)GlcNAc(b1-6)GalNAc
# Method in brief: as §1
# [28] = molecular target: Gal(a1-3)Gal(b1-4)[Fuc(a1-3)]GlcNAc
# Method in brief: as §1
# [29] = molecular target: Gal(a1-3)Gal(b1-4)[Fuc(a1-3)]GlcNAc(b1-2)Man(a1-3)[Gal(a1-3)Gal(b1-4)[Fuc(a1-3)]GlcNAc(b1-2)Man(a1-6)]Man(b1-4)GlcNAc(b1-4)GlcNAc
# Method in brief: as §1
binder,measurement,setting,value
B1,glycan array binding signal (z-score),[1],-0.337
same,glycan array binding signal (z-score),Fuc(a1-3)GlcNAc,-0.304
same,glycan array binding signal (z-score),[2],-0.259
same,glycan array binding signal (z-score),[3],-0.287
same,glycan array binding signal (z-score),[4],-0.247
same,glycan array binding signal (z-score),[5],-0.291
same,glycan array binding signal (z-score),[6],-0.206
same,glycan array binding signal (z-score),[7],-0.302
same,glycan array binding signal (z-score),[8],-0.271
same,glycan array binding signal (z-score),[9],-0.265
same,glycan array binding signal (z-score),[10],-0.194
same,glycan array binding signal (z-score),[11],-0.113
same,glycan array binding signal (z-score),[12],-0.178
same,glycan array binding signal (z-score),[13],-0.255
same,glycan array binding signal (z-score),[14],-0.267
same,glycan array binding signal (z-score),[15],-0.314
same,glycan array binding signal (z-score),[16],-0.263
same,glycan array binding signal (z-score),[17],-0.246
same,glycan array binding signal (z-score),[18],-0.315
same,glycan array binding signal (z-score),Fuc(a1-4)GlcNAc,-0.305
same,glycan array binding signal (z-score),Fuc(b1-3)GlcNAc,-0.331
same,glycan array binding signal (z-score),Gal(a1-2)Gal,-0.198
same,glycan array binding signal (z-score),Gal(a1-3)Gal,1.37
same,glycan array binding signal (z-score),Gal(a1-3)Gal(b1-3)GlcNAc,0.983
same,glycan array binding signal (z-score),[19],2.08
same,glycan array binding signal (z-score),[20],0.074
same,glycan array binding signal (z-score),[21],0.907
same,glycan array binding signal (z-score),[22],1.16
same,glycan array binding signal (z-score),[23],-0.234
same,glycan array binding signal (z-score),Gal(a1-3)Gal(b1-4)Glc,0.895
same,glycan array binding signal (z-score),Gal(a1-3)Gal(b1-4)GlcNAc,2.83
same,glycan array binding signal (z-score),[24],1.11
same,glycan array binding signal (z-score),[25],3.7
same,glycan array binding signal (z-score),[26],1.39
same,glycan array binding signal (z-score),[27],0.772
same,glycan array binding signal (z-score),[28],-0.08
same,glycan array binding signal (z-score),[29],-0.106
